Among the data in PMC10726135 are binding signal (log2 normalized intensity) values, retold here.

The other results are listed elsewhere or left out. At the low end of the ranking, values are background and their order means little. The protein was read in a cell extract, so binding may be indirect.

The test addresses T1, HNF4alpha2 (COS-7 nuclear extract) (UniProt P41235).
T1 sequence: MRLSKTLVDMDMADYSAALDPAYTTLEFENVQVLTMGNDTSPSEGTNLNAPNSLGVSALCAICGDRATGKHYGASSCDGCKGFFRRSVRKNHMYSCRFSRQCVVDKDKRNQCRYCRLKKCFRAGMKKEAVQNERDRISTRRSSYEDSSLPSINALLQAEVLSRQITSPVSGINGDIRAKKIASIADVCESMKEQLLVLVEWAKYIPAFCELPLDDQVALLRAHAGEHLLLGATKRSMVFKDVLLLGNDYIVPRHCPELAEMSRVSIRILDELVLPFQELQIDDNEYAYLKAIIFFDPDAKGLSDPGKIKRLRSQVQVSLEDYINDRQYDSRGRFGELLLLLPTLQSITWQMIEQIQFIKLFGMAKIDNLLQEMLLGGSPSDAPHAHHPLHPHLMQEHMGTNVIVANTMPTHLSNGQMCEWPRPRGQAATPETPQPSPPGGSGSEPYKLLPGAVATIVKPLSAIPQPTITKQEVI
Description: protein-binding microarray. Particulars: COS-7 nuclear extract on double-stranded Agilent 4x180k PBM; binding buffer, salt, pH and temperature not given; high values mean tight binding; double strand, one strand shown; sequences stand for … in …GCCTAGGGAGATTAGAGTATCGGTCGA
As to TCTCTCCCACTTATCTCAATCCTGCTCAAT, the binding signal (log2 normalized intensity) came to 0.55.
Next, GGGTAGATAAGGATGGATCAAAGGAAACTG: -1.2; TAGCTACTGCAATAAAGTGGGTTGAAGTTC: 1.55; TAATGGAATTGACATTCAATTGCAAGCTTA: -1.13.
Then GGAGGGAACAGCAAGACTTTGGCCCTGCAG, with -0.791; and CAAACATTTGGAAAACATCATTCCGTGACT, with -1.08; and GCCTGGCTGGCCTGGCAAATCTCTAAATTC, with -1.19.
Then AAGCGGACAAACCAGTCCCATCTGTGCTCA, with -1.16; and ACTATTTTCAAAGGTCAACATACAGAGGCT, with 1.84; and CTCCAAACAAATTGAGAAAGATTAAGAGGC, with -1.2.
As to AATGAATGTCACTTTCTGACTGGCCTGGGA, the binding signal (log2 normalized intensity) was determined as 1.49.
With CCGAGGCTGACAGCAGAGAGTTTTCCTTGG, the binding signal (log2 normalized intensity) is -0.272.
In the case of CTCCTGACCTTTGGACTTGATAGAGTTTAA, the binding signal (log2 normalized intensity) came out at 7.57.
Then TGATAACATGAGGTAGAGGGACACTGATAA, with -1.07; and TGCTTCAGTCTCCCAAGTAGCTCATTTATT, with 0.972.
Then AACACCTGGGTCTGACCTCTTTCAAGCCTG, with 0.86.
Then GTGCTTTCTGTCCTCTCAAAGTCCACCCGG, with 3.58; and TGCGTTTCAAAGCCAGGACTTTCAGGAATG, with -1.14; and AAAGCCATCAGCACTGGTTCAAAGTGTAGC, with 0.876.
Regarding TCCACAGAGTTCATAATTTTGGACTTTGTG, the binding signal (log2 normalized intensity) came to 6.15.
Then AAGTCCCCTTTCCTCATATTTTGCATACCA, with 1.79; and CTCTGCACCCTTCCCTGAGTTTCCATTAAC, with 1.28; and TTTCACAAATCATTACTATCTGCTGGGGGC, with -0.0971.
Next, AGCCTTAGGTATGCCCCATGGTAAGAACTA: 0.745; CTTGTATCGCCTGAATGACCACATGCCCTC: 2.41.
Then GGGAACTCCCTGACCCCTAGCACTTCCCGA, with 3.14; and TGAATCCTCTTTGAGTCTGGTGTTCTCTTG, with 1.73; and ATTGCCAATATCTGCCATCTACTAAGTGCT, with -1.17.
Consider GAGTAAAGTATCCAGTTAATCCCAGAAGAA, for which the binding signal (log2 normalized intensity) was -0.339.
Then TGCGCAAACATAAAGGCAAAGGTCAAGGAC, with 3.92; and GTTTCCCTGTTTGCTTCTGCCCCCTGGAGG, with 2.99; and GAAGGCCCCAATTGCCAAGGGGGTGGTGAA, with -0.785.
For TTGCTGCTCTCGCCTGGAAGTCCATTTCCC, the binding signal (log2 normalized intensity) came to 1.67.
GCTAAACAATTAAAGAACTCTTCATTATGG: the binding signal (log2 normalized intensity) was -0.854.
Then TCATTACCTCCCTGGGCATGTCTGCTCCCT, with 1.52; and TATGGCGAAAAAGGAAATATCTTCCCATAA, with -1.11; and GGGTTCTTGGATCCTCAGGGTTCATAGATG, with 2.08.
As to TTCCCTCTCTCCTGGTTTGGGGCCTAAATG, the binding signal (log2 normalized intensity) came out at 0.626.
Next, AAGTTTGCAAACAGTAAAGAACAAACTTCC: -0.882.
Next, GGTACCCTGGATACGGAAGGTGCTCAGAAA: -0.956; TGAATGCCTGGGCATGGCTGTGTTCCAGTA: 0.581; CAACGGAGGTGGGAAAGACTTAGGATCTAG: -1.3.
Next, TATGCCCAGAGCTTTGTTCTGTTCCAGTTA: 0.376; GTCCCGTTATGGCACCAAGAAACCTTTCCC: -1.04; CTACAGCCCACAATTGCATGTTCAACAGAC: -0.797.
Take GATGCATGCACTTCATTGTGCACCCACTTG: the binding signal (log2 normalized intensity) is -0.091.
Next, GAACCCAAGCAATCTGGCTGCAGAGTCCAA: 2.04.
Then GGTCAAGCTAAGCACAACTGATTCTATTTA, with -1.12; and CTTTTGTTTTTCTTCAAGGAGGTGAACTTT, with 5.1.
Next, CCCCTGCACAGTCAAAAATTTGTGTGTAAC: 1.89.
Take CTCTCCCTCCTCTCTGAGCAGTCAAACTGG: the binding signal (log2 normalized intensity) is 1.96.
Then ACTGCCCTCTGCCTTTCAGGCAGGAGACGA, with -1.2; and TATATGTTTTGCAACAAAGGCACTTTGATA, with 1.47; and TGACTTCCAATTTACTTTTTAAACACCTAG, with -1.18.
Then GTGTGGCATCTTGGGGTCAAGGCCTTTAAG, with 1.64.
Then AATTCTTTGCTGTGGTAGGCTGTCCTGTGC, with 1.56; and GCTTAGGACTGCAGGGGGCCAAGGGATACC, with -1.1; and GTTCTGCCATCTCGCAGAAAGTGGCCGGAC, with 1.62.
With ACGTGGCAATCATTCTGTCTGCCTTCAGGC, the binding signal (log2 normalized intensity) is -0.947.
Regarding CCCTTTGCACATGCCCCTCCCAGGGACACA, the binding signal (log2 normalized intensity) stood at 3.12.
In the case of GCTCCAGGTAGTCCCTGCTCCACGCAAACA, the binding signal (log2 normalized intensity) is -1.1.
Turning to AGCCTTCCTGTTCAACTATTCCTCGACCTT, the binding signal (log2 normalized intensity) was 2.11.
For ATCCAGTAGAGGGCATAGCAGATAAGCATT, the binding signal (log2 normalized intensity) was -0.984.
Then GTTGCCTATGCCCTTTGAAATTCTGGACTT, with 3.31; and GAACGCTCACAGAAAGAAGAGACAGCTGGG, with -1.23.
Then CAGGGTGGACTTTAAACATTCCCACCTAAG, with 3.18; and CACGTAAATAAGGATAAAGTAAGGTGAAGC, with -0.82; and TGCTCCAGGCAAAGGGCATAACATGAGGCA, with -1.15.
Then GAGCACAGAAGGAGGGCGGGGAGTCTCCTG, with -1.14; and GCTTGAAAACACAACAAAAGAACTCAAGAG, with -1.05.
For CTGTGCTTTGGCCAAATAATAGCATTGTAG, the binding signal (log2 normalized intensity) is 0.358.
Consider GCTTCTCTTGGACCTCAATGTGCTCATCCA, for which the binding signal (log2 normalized intensity) turned out to be 0.722.
